According to PMC5700166:
This is a selection; strong and weak results do not stand in their true shares. The list includes weakly bound sequences.

Columns and labels:
Assay in all cases: protein-binding microarray (PBM)
Settings in all cases: PBM: ~300 nM protein, 6 mM HEPES pH 7.8, 80 mM KCl, 0.5 mM EDTA, 0.5 mM EGTA, 6% glycerol, 35 ng/ul poly-dIdC, 1% milk, 1 h, room temperature; Ap Aiptasia and Nv Nematostella (sea anemones) / Co Capsaspora / Aq Amphimedon (sponge) / Dm Drosophila / Hu human; RHD is the Rel homology domain; high values mean tight binding; most listed sequences are background and not binding sites; double strand, one strand shown
[1] = target: T1, GST-Ap-NF-kB RHD (UniProt A0A913YAJ5)
T1 sequence: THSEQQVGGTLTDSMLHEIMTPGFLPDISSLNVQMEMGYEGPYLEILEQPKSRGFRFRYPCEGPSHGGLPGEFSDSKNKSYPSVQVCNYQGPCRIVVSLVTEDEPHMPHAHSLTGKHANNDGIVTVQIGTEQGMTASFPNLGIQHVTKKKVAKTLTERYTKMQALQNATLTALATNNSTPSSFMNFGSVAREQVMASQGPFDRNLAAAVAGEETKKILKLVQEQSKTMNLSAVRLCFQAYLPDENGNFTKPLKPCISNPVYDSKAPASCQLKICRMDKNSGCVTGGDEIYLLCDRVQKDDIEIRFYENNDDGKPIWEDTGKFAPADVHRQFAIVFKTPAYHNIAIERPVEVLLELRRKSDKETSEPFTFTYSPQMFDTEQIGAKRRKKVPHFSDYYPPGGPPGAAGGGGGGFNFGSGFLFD

[2] = target: T2, GST-Nv-NF-kB (Cys allele) (UniProt E5G601)
T2 sequence: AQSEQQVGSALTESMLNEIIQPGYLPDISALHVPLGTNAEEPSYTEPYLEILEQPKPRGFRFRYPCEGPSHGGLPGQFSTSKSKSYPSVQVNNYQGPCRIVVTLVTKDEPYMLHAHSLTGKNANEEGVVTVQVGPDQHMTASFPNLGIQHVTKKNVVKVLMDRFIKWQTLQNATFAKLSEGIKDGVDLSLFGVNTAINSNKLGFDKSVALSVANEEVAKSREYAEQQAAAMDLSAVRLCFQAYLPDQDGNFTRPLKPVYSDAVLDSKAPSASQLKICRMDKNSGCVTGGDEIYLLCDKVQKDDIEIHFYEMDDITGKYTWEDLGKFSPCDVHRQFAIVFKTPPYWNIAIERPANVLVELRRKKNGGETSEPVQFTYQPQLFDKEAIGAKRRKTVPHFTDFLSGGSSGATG

[3] = target: T3, GST-Co-NF-kB (UniProt F1ARL5)
T3 sequence: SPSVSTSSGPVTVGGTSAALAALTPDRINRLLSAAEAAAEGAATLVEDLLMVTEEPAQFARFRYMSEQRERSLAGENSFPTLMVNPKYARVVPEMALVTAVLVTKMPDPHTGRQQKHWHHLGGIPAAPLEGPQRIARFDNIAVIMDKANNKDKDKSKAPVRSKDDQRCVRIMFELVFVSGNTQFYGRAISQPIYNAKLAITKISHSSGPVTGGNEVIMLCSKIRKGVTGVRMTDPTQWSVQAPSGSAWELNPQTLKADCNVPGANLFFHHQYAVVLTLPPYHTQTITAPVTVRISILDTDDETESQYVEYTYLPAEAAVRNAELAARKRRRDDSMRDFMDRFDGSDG

[4] = target: T4, GST-Dm-Relish (UniProt Q94527)
T4 sequence: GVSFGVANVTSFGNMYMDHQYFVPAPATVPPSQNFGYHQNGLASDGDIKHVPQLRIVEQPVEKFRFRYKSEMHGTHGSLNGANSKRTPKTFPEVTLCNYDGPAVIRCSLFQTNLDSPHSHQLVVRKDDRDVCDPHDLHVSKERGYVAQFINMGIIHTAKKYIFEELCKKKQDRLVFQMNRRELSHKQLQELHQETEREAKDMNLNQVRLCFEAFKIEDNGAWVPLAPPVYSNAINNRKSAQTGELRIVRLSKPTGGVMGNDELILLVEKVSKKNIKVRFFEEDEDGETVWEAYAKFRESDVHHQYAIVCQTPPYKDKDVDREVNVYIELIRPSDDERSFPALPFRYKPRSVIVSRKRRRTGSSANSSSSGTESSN

[5] = target: T5, GST-Aq-NF-kB (UniProt A9Y5G7)
T5 sequence: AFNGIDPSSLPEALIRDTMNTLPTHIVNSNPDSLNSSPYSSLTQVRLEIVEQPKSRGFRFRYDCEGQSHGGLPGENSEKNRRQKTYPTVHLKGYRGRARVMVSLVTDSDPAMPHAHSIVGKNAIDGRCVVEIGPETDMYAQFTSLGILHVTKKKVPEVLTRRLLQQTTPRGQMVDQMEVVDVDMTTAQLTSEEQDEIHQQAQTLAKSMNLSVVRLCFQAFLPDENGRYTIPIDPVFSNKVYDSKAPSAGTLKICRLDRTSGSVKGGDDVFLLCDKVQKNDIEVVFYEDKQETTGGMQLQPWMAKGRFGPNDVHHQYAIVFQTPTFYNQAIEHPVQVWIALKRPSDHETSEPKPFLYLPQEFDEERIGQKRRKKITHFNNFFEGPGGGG

Sequence | binding signal [1] | binding signal [2] | binding signal [3] | binding signal [4] | binding signal [5]
CCGATTAACATCAAGCACATGATTGATGTTAATCGGGTCTTGATTCGCTTGACGCTGCTG | -0.792 z-score | -0.202 z-score | -1.27 z-score | -0.448 z-score | -0.635 z-score
CCGATTAACATCACGGACATTCCTGATGTTAATCGGGTCTTGATTCGCTTGACGCTGCTG | 0.243 z-score | -1.23 z-score | 0.235 z-score | 0.22 z-score | 1.97 z-score
CCGATTAACATCATCTCACATGTTGATGTTAATCGGGTCTTGATTCGCTTGACGCTGCTG | -0.739 z-score | -0.545 z-score | 0.189 z-score | -0.376 z-score | -0.519 z-score
CCGATTAACATCACAGGAAATCCTGATGTTAATCGGGTCTTGATTCGCTTGACGCTGCTG | 0.0614 z-score | -0.106 z-score | -0.307 z-score | 1.25 z-score | 0.835 z-score
CCGATTAACATCATATCAAGTAGTGATGTTAATCGGGTCTTGATTCGCTTGACGCTGCTG | -0.93 z-score | -0.82 z-score | 0.438 z-score | -0.379 z-score | -0.468 z-score
CCGATTAACATCATAGATGTGTCTGATGTTAATCGGGTCTTGATTCGCTTGACGCTGCTG | -1.07 z-score | -0.286 z-score | -0.728 z-score | -0.733 z-score | -0.376 z-score
CCGATTAACATCATTACAGGCCGTGATGTTAATCGGGTCTTGATTCGCTTGACGCTGCTG | 0.274 z-score | -0.539 z-score | -0.191 z-score | 0.129 z-score | -0.306 z-score
CCGATTAACATCACTGGACAAATTGATGTTAATCGGGTCTTGATTCGCTTGACGCTGCTG | -0.432 z-score | -0.0377 z-score | 0.266 z-score | 0.068 z-score | -0.195 z-score
CCGATTAACATCACTGAACGCGTTGATGTTAATCGGGTCTTGATTCGCTTGACGCTGCTG | -0.496 z-score | -0.294 z-score | -0.56 z-score | -0.346 z-score | -0.553 z-score
CCGATTAACATCAGTTGTCCATCTGATGTTAATCGGGTCTTGATTCGCTTGACGCTGCTG | -0.279 z-score | -0.482 z-score | -0.45 z-score | -0.654 z-score | -0.41 z-score
CCGATTAACATCACTAGGTAGTCTGATGTTAATCGGGTCTTGATTCGCTTGACGCTGCTG | 0.775 z-score | 0.18 z-score | 0.576 z-score | -0.048 z-score | 0.153 z-score
CCGATTAACATCAAATTGCAATATGATGTTAATCGGGTCTTGATTCGCTTGACGCTGCTG | -0.86 z-score | 0.0408 z-score | -0.763 z-score | -0.191 z-score | -0.324 z-score
CCGATTAACATCAATACGAGGACTGATGTTAATCGGGTCTTGATTCGCTTGACGCTGCTG | 0.161 z-score | 0.893 z-score | 0.00134 z-score | -0.524 z-score | -0.259 z-score
CCGATTAACATCAGCTACCGCTTTGATGTTAATCGGGTCTTGATTCGCTTGACGCTGCTG | -0.504 z-score | -0.392 z-score | 0.0444 z-score | -0.498 z-score | -0.793 z-score
CCGATTAACATCAGTACCGCGAATGATGTTAATCGGGTCTTGATTCGCTTGACGCTGCTG | 0.791 z-score | 0.538 z-score | 0.0338 z-score | 0.363 z-score | 0.607 z-score
CCGATTAACATCAAACTCAGCGTTGATGTTAATCGGGTCTTGATTCGCTTGACGCTGCTG | -0.692 z-score | -0.534 z-score | 0.914 z-score | -0.819 z-score | -0.538 z-score
CCGATTAACATCATGTGCAGTCTTGATGTTAATCGGGTCTTGATTCGCTTGACGCTGCTG | -0.0449 z-score | 0.322 z-score | -0.51 z-score | 0.0197 z-score | -0.188 z-score
CCGATTAACATCAGAAATTCCGATGATGTTAATCGGGTCTTGATTCGCTTGACGCTGCTG | -0.392 z-score | 0.00391 z-score | -0.28 z-score | 0.0579 z-score | 0.552 z-score
CCGATTAACATCATGTCTACCAGTGATGTTAATCGGGTCTTGATTCGCTTGACGCTGCTG | -0.324 z-score | -1.02 z-score | 0.413 z-score | 0.0303 z-score | -0.315 z-score
CCGATTAACATCACGGAATGTGATGATGTTAATCGGGTCTTGATTCGCTTGACGCTGCTG | -0.367 z-score | -0.637 z-score | -0.385 z-score | 0.357 z-score | -0.135 z-score
CCGATTAACATCACGTTCTAAAGTGATGTTAATCGGGTCTTGATTCGCTTGACGCTGCTG | -0.699 z-score | -0.909 z-score | -0.248 z-score | -0.00906 z-score | -0.596 z-score
CCGATTAACATCAGAAAAAGGCATGATGTTAATCGGGTCTTGATTCGCTTGACGCTGCTG | -0.115 z-score | 0.0931 z-score | 0.0662 z-score | -0.192 z-score | 0.0484 z-score
CCGATTAACATCATCGACAGCAGTGATGTTAATCGGGTCTTGATTCGCTTGACGCTGCTG | -0.248 z-score | -0.622 z-score | 0.244 z-score | -0.596 z-score | -0.509 z-score
CCGATTAACATCAGACTTGAGTATGATGTTAATCGGGTCTTGATTCGCTTGACGCTGCTG | -0.656 z-score | -0.588 z-score | -0.175 z-score | -1.51 z-score | -0.704 z-score
CCGATTAACATCACAATTTGGACTGATGTTAATCGGGTCTTGATTCGCTTGACGCTGCTG | 0.00807 z-score | -0.496 z-score | 0.313 z-score | 0.178 z-score | 0.00868 z-score
